Among all 39,000 compounds or so, about 220 (0.56%) showed activity. The list shows a part of the results.
Tested on: Escherichia coli K-12 BW25113
Experiment: relative growth (OD600 normalised to plate interquartile mean) (fraction); higher = less growth inhibition, active = 0.2 or less
Conditions: 50 µM; LB; incubation time: overnight (16-24 h)
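Note: static incubation at 37 °C against the wild-type strain, values averaged over two biological replicates.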

Row | Structure (SMILES) | relative growth
1 | CNc1ncnc(Cl)c1N | inactive: 1
2 | CO[C@@H]1CN(C)C(=O)c2cc(NS(=O)(=O)c3cn(C)cn3)ccc2OC[C@H](C)N(CCC(F)(F)F)C[C@@H]1C | inactive: 0.994
3 | CC(=O)NCCCC[C@@H]1NC(=O)[C@@H]2C[C@H](C(=O)NCCCCCNC(=O)CS)[C@H](c3cccc(OCCO)c3)N2C1=O | inactive: 0.924
4 | C[C@@H]1CN([C@@H](C)CO)C(=O)c2cc(NC(=O)CCCN(C)C)ccc2O[C@H]1CN(C)S(=O)(=O)c1cccs1 | inactive: 1
5 | C[C@H](CO)N1C[C@H](C)[C@H](CN(C)Cc2ccc(C(=O)O)cc2)Oc2ccc(NC(=O)CCCN(C)C)cc2C1=O | inactive: 1.01
6 | C[C@H](CO)N1C[C@H](C)[C@@H](CN(C)C(=O)Nc2ccc(F)cc2)Oc2ccc(NS(C)(=O)=O)cc2CC1=O | inactive: 0.992
7 | COCC(=O)Nc1ccc2c(c1)OC[C@@H](C)N(Cc1ccccc1F)C[C@H](C)[C@@H](OC)CN(C)C2=O | inactive: 1.01
8 | C[C@@H]1CN([C@@H](C)CO)C(=O)c2cc(C#Cc3cccnc3)cnc2O[C@@H]1CN(C)Cc1ccc(F)cc1 | inactive: 1
9 | CC(C)NC(=O)Nc1cccc2c1O[C@@H](CN(C)S(=O)(=O)c1ccc(F)cc1)[C@H](C)CN([C@H](C)CO)C2=O | inactive: 1
10 | C[C@H](CO)N1C[C@H](C)[C@@H](CN(C)Cc2ccc(Cl)c(Cl)c2)Oc2ccc(NC(=O)Nc3cccc4ccccc34)cc2CC1=O | inactive: 0.996
11 | CCCC(=O)Nc1ccc2c(c1)C(=O)N(C)C[C@@H](OC)[C@H](C)CN(C(=O)CN1CCOCC1)[C@H](C)CO2 | inactive: 0.993
12 | C#CCN([C@H](/C=C/C1CC1)[C@@H](O)Cc1ccccc1)[C@@H](Cc1ccc(-n2cc(C(=O)NO)nn2)cc1)C(=O)OC | inactive: 0.984
13 | Cl.Cl.OCCN1CCN(CCCN2c3ccccc3Sc3ccc(C(F)(F)F)cc32)CC1 | inactive: 0.973
14 | C[C@@H]1CN([C@@H](C)CO)C(=O)c2cc(NC(=O)Nc3ccc(C(F)(F)F)cc3)ccc2O[C@@H](C)CCCCO[C@H]1CN(C)Cc1ccccc1 | inactive: 1.01
15 | C[C@H](CO)N1C[C@H](C)[C@@H](CN(C)Cc2ccc(C(=O)O)cc2)OCCCC[C@H](C)Oc2ccc(NC(=O)CCC(F)(F)F)cc2C1=O | inactive: 1.02
16 | Cc1cnc(Nc2ccc(F)cc2Cl)nc1-c1c[nH]c(C(=O)N[C@H](CO)c2cccc(Cl)c2)c1 | inactive: 1.02
17 | C[C@@H]1CN([C@@H](C)CO)C(=O)Cc2cc(NC(=O)Cn3cnnn3)ccc2O[C@@H]1CN(C)C(=O)NC1CCCCC1 | inactive: 1.01
18 | C[C@H](CO)N1C[C@H](C)[C@H](CN(C)Cc2ccc(Cl)c(Cl)c2)OCCCC[C@H](C)Oc2ccc(NC(=O)c3ccccc3)cc2C1=O | inactive: 0.995
19 | CCCN1C[C@@H](C)[C@@H](OC)CN(C)C(=O)c2cc(NS(=O)(=O)c3cn(C)cn3)ccc2OC[C@H]1C | inactive: 1
20 | C[C@@H]1CN([C@@H](C)CO)C(=O)c2cc(NC(=O)c3ccccc3)ccc2O[C@@H](C)CCCCO[C@@H]1CN(C)Cc1ccc(C(F)(F)F)cc1 | inactive: 0.996

Row | Structure (SMILES) | relative growth
21 | COc1ccc(S(=O)(=O)Nc2ccc3c(c2)C(=O)N([C@@H](C)CO)C[C@H](C)[C@H](CN(C)S(=O)(=O)c2ccc(C)cc2)O3)cc1 | inactive: 1.01
22 | Cc1noc(C)c1S(=O)(=O)N(C)C[C@H]1Oc2ccc(NC(=O)c3ccncc3)cc2CC(=O)N([C@H](C)CO)C[C@@H]1C | inactive: 0.999
23 | C[C@H](CO)N1C[C@H](C)[C@H](CN(C)C(=O)Nc2cccc3ccccc23)Oc2ccc(NC(=O)Nc3cccc4ccccc34)cc2CC1=O | inactive: 0.989
24 | O=C([C@@H]1[C@@H](CO)[C@@H]2Cn3c(cccc3=O)[C@@H]2N1CC1CCCC1)N1CCOCC1 | inactive: 1.05
25 | O=C(Nc1ccc(Cl)cc1)c1sc2ccccc2c1Cl | inactive: 0.993
26 | COc1ccc(NC(=O)Nc2ccc3c(c2)C(=O)N([C@@H](C)CO)C[C@H](C)[C@@H](CN(C)Cc2ccc(Oc4ccccc4)cc2)O3)cc1 | inactive: 0.904
27 | CNc1nc(OC)cc(OC)n1 | inactive: 0.995
28 | C[C@@H](NCc1cnc(N(C)C)s1)C(N)=O | inactive: 1.03
29 | CC(C)CC#Cc1ccc2c(c1)O[C@@H](CN(C)C(=O)c1cccnc1)[C@H](C)CN([C@H](C)CO)S2(=O)=O | inactive: 1.01
30 | Cc1noc(C)c1S(=O)(=O)Nc1ccc2c(c1)CC(=O)N([C@H](C)CO)C[C@@H](C)[C@@H](CN(C)S(C)(=O)=O)O2 | inactive: 0.995
31 | Cc1ccc(S[C@]2(C(=O)NC3CC3)CC(=O)N(Cc3ccccc3Cl)[C@@H]2c2ccc(CO)cc2)cc1 | inactive: 1.02
32 | COc1ccc(NC(=O)Nc2ccc3c(c2)CC(=O)N([C@@H](C)CO)C[C@@H](C)[C@H](CN(C)C(=O)Nc2ccc(C(F)(F)F)cc2)O3)cc1 | inactive: 1.02
33 | C[C@H](CO)N1C[C@H](C)[C@H](CN(C)Cc2ccc(C(F)(F)F)cc2)OCCCC[C@H](C)Oc2ccc(NC(=O)c3ccncc3)cc2C1=O | inactive: 0.935
34 | COc1ccc(S(=O)(=O)N(C)C[C@@H]2OCCCC[C@@H](C)Oc3ccc(NC(=O)c4ccccc4)cc3C(=O)N([C@H](C)CO)C[C@H]2C)cc1 | inactive: 1.01
35 | COc1ccc(NC(=O)N(C)C[C@H]2Oc3ccc(NS(=O)(=O)c4cn(C)cn4)cc3CC(=O)N([C@H](C)CO)C[C@H]2C)cc1 | inactive: 1.04
36 | C[C@@H]1CN([C@H](C)CO)C(=O)Cc2cc(NS(C)(=O)=O)ccc2O[C@@H]1CN(C)C | inactive: 0.976
37 | Cc1noc(C)c1NC(=O)N(C)C[C@@H]1Oc2c(NS(=O)(=O)c3cn(C)cn3)cccc2C(=O)N([C@H](C)CO)C[C@@H]1C | inactive: 1.01
38 | COc1ccc(CN(C)C[C@H]2OCCCC[C@@H](C)Oc3ccc(NC(=O)c4ccncc4)cc3C(=O)N([C@H](C)CO)C[C@@H]2C)cc1 | inactive: 1.01
39 | COC(=O)Nc1nc2ccc(Sc3ccccc3)cc2[nH]1 | inactive: 0.879
40 | Cc1ccc(S(=O)(=O)Nc2ccc3c(c2)C(=O)N([C@H](C)CO)C[C@@H](C)[C@H](CN(C)S(=O)(=O)c2ccc(C)cc2)OCCCC[C@@H](C)O3)cc1 | inactive: 1.01

Row | Structure (SMILES) | relative growth
41 | C[C@H]1CN([C@@H](C)CO)C(=O)c2cc(C#CCN(C)C)cnc2O[C@@H]1CN(C)C(=O)c1cnccn1 | inactive: 1
42 | COc1ccc(NC(=O)Nc2cccc3c2O[C@@H](CN(C)Cc2ccc(Oc4ccccc4)cc2)[C@@H](C)CN([C@H](C)CO)C3=O)cc1 | inactive: 0.972
43 | COc1ccc(NC(=O)Nc2ccc3c(c2)C(=O)N([C@@H](C)CO)C[C@H](C)[C@@H](CN(C)C(=O)Nc2ccc(OC)cc2)OCCCC[C@H](C)O3)cc1 | inactive: 1.02
44 | C[C@@H]1CN([C@@H](C)CO)C(=O)c2cc(NC(=O)CCCCCC(=O)Nc3ccccc3N)ccc2O[C@@H](C)CCCCO[C@@H]1CN(C)C(=O)Nc1ccc(C(F)(F)F)cc1 | inactive: 1.01
45 | O=C(O)c1cn(C2CC2)c2cc(N3CCNCC3)c(F)cc2c1=O | active: 0.0478
46 | O=C(C[C@H]1C[C@H]2c3cc(NS(=O)(=O)c4ccccc4)ccc3O[C@H]2[C@@H](CO)O1)NCC(F)(F)F | inactive: 1.03
47 | O=C(NCCCN1CCOCC1)[C@@H]1[C@@H](CO)[C@@H]2Cn3c(cccc3=O)[C@H]1N2C(=O)NC1CCCC1 | inactive: 1.01
48 | CC(=O)c1cc(S(=O)(=O)c2ccc(C)cc2)c(CC[C@H](COC(=O)NCCCCCC(=O)NO)NC(=O)Nc2nnc[nH]2)o1 | inactive: 1.02
49 | Cc1ccc(S(=O)(=O)Nc2ccc3c(c2)C(=O)N([C@@H](C)CO)C[C@@H](C)[C@@H](CN(C)C(=O)Nc2ccc(C(F)(F)F)cc2)O3)cc1 | inactive: 1.01
50 | CNC[C@@H]1OCCCC[C@H](C)Oc2ccc(NS(=O)(=O)c3c(C)noc3C)cc2C(=O)N([C@H](C)CO)C[C@@H]1C | inactive: 1
51 | CCS(=O)(=O)C1CNC1 | inactive: 1.03
52 | CC(C)NC(=O)Nc1ccc2c(c1)C(=O)N([C@@H](C)CO)C[C@H](C)[C@@H](CN(C)S(=O)(=O)c1ccc(F)cc1)O2 | inactive: 0.972
53 | O=C(C[C@H]1CC[C@@H]2[C@H](COC[C@H](O)CN2Cc2cc(F)ccc2F)O1)N[C@H]1CCN(Cc2ccccc2)C1 | inactive: 0.977
54 | COc1cccc(C(=O)Nc2ccc3c(c2)C(=O)N(C)[C@@H]2CC[C@@H](CC(=O)NCC4CC4)O[C@@H]2CO3)c1 | inactive: 1.02
55 | CCS(=O)(=O)N1CC[C@]2(CC1)CN([C@H](CO)c1[nH]c3cc(ccc3c12)OC)C(=O)Nc1c(noc1C)C | inactive: 0.978
56 | C[C@H]1CN([C@@H](C)CO)C(=O)Cc2cc(NC(=O)Cc3cn(C)c4ccccc34)ccc2O[C@@H]1CN(C)S(C)(=O)=O | inactive: 1.02
57 | CN(C)CCN1CCN(C)C2(CCN(C(=O)[C@H]3CCCO3)CC2)C1=O | inactive: 1
58 | C[C@H](CO)N1C[C@H](C)[C@@H](CN(C)S(=O)(=O)c2ccc(Cl)cc2)OCCCC[C@H](C)Oc2ccc(NS(=O)(=O)c3ccc(Cl)cc3)cc2C1=O | inactive: 1.05
59 | C[C@H]1CN([C@@H](C)CO)C(=O)c2cccc(NC(=O)Nc3cccc4ccccc34)c2O[C@@H]1CN(C)C(=O)Nc1ccc(C(F)(F)F)cc1 | inactive: 0.854
60 | C[C@@H]1CN([C@@H](C)CO)C(=O)c2cc(NC(=O)CCC(F)(F)F)ccc2O[C@@H]1CN(C)Cc1ccc(Oc2ccccc2)cc1 | inactive: 1

— the supplement of paper PMC9446081
